The values that follow come from ChEMBL document CHEMBL4888484, “Replenishing the malaria drug discovery pipeline: Screening and hit evaluation of the MMV Hit Generation Library 1 (HGL1) against asexual blood stage Plasmodium falciparum ,using a nano luciferase reporter read-out” (2022).

Screen size: about 150,000 compounds; about 540 (0.36%) showed an effect of 50% or more. Some of the results follow.

For the test, the system named is Plasmodium falciparum. The test can be described thus: Primary screen in NF54 nanoGlo assay, in single point, at 2uM, 72h; a lower Z score goes with more inhibition. To be noted: timepoint 72 hour. The test is classed as functional, Erythrocyte.
As to `O=C(NCCNc1ccccc1)NCc1ccco1`, the “% Inhibition” value is recorded as -2% and the Z score was 0.43.

Turning to `C[C@H](C(=O)NCCc1c[nH]c2ncccc12)C1CC1`, the “% Inhibition” value is listed as -18% and the Z score came out at 2.05.

In the case of `CN(C)C(=O)C1CCC(CNC(=O)N2CCC(O)(C(F)(F)F)CC2)O1` (stereo unspecified), the “% Inhibition” value is recorded as -6% and the Z score turned out to be 1.12.

In the case of `O=C(C[C@@H]1C[C@@H]2C=C[C@H]1C2)NCCc1nccs1`, the “% Inhibition” value is on record as -3% and the Z score is listed as 0.57.

On to `NC[C@H]1CCCCN1C(=O)c1ccc(-c2ccccc2)[nH]1`, for which the “% Inhibition” value is -11% and the Z score is 2.02.

Consider `Cc1cc(C)nc(NOCc2ccccc2)n1`, for which the “% Inhibition” value is 3% and the Z score is on record as -0.61.

For `COc1cccc(C(=O)N2CCN(C(=O)[C@@H]3CN(C)C(=O)N3)CC2)c1`, the “% Inhibition” value is -10% and the Z score stood at 1.54.

On to `CN1CCC(NC(=O)NCC2(CO)CCC2)C1c1ccccc1` (stereo unspecified), for which the “% Inhibition” value is -12% and the Z score was 2.33.

Consider `O=C(N/C(=N\c1ccc(F)cc1)N1CCN(Cc2cccc(F)c2)CC1)c1ccccc1`, for which the “% Inhibition” value was 2% and the Z score is reported as -0.32.

Take `CC(C)N1CCN(C(=O)[C@@H]2CCCCc3nnc(-c4ccccc4)n32)CC1`: the “% Inhibition” value is given as -6% and the Z score was found to be 0.88.

Regarding `c1nnc(CN2CCCC23CCC3)s1`, the “% Inhibition” value stood at 10% and the Z score is on record as -1.03.

For `COc1cc([C@@H]2NC(=O)c3c(sc(C)c3C)N2)ccc1O`, the “% Inhibition” value was found to be 30% and the Z score was -3.81.

For the compound `CC(C)c1ncsc1NC(=O)NCc1nc2c(s1)COCC2`, the “% Inhibition” value is 0% and the Z score is 0.06.

In the case of `CC(C)C1OCCCC1CNC(=O)C1CC(c2cccnc2)=NO1` (stereo unspecified), the “% Inhibition” value is -21% and the Z score is on record as 3.52.

On to `O=C1CC[C@H](C(=O)N2CC3CCC(C2)O3)N1`, for which the “% Inhibition” value amounted to 5% and the Z score is recorded as -0.58.

For the compound `COCCn1c(C)cnc1CCNC(=O)c1cccn1C`, the “% Inhibition” value was -11% and the Z score is recorded as 1.92.

With `O=C(NS(=O)(=O)c1cnc2n1CCC2)c1cccc2c1CCCC2`, the “% Inhibition” value is given as -8% and the Z score stood at 1.36.

Take `CCOC(=O)c1csc(C2CCCN2C2CCNC2=O)n1` (stereo unspecified): the “% Inhibition” value was -3% and the Z score was determined as 0.42.

As for `Cc1ccccc1CN1CCc2[nH]cnc2[C@H]1c1cnc(NC(C)C)nc1`, the “% Inhibition” value is -8% and the Z score turned out to be 0.97.

Turning to `COC[C@H]1CCCN1S(=O)(=O)N1CCC(CNC(=O)c2ccccc2)CC1`, the “% Inhibition” value is on record as -16% and the Z score is given as 3.08.

For the compound `Cc1nc(C)c(CC(=O)Nc2ccc3c(c2)OCO3)s1`, the “% Inhibition” value was 3% and the Z score is -0.53.

Consider `COc1ccc(-n2nc3nc(NC[C@H]4CCCO4)nc(-c4cccc(F)c4)c3c2N)cc1`, for which the “% Inhibition” value is recorded as -5% and the Z score was determined as 0.52.

In the case of `CC(NC(=O)NCC1CCCS1(=O)=O)c1ccc(F)cc1Cl` (stereo unspecified), the “% Inhibition” value is -12% and the Z score was found to be 1.51.

As to `Cc1noc(OCc2cn3ccccc3n2)n1`, the “% Inhibition” value is recorded as -12% and the Z score came to 1.64.

For `Cc1cccc(CO[C@]2(C(=O)NCC3CC3)CC(OCc3c(F)cccc3F)[C@@H]3OC(C)(C)O[C@@H]3C2)c1` (stereo partly specified), the “% Inhibition” value is -22% and the Z score is recorded as 1.9.

Consider `CC[C@H](C)c1noc(Cn2nc(C(F)(F)F)c3c2CCOC3)n1`, for which the “% Inhibition” value is listed as -9% and the Z score is given as 1.2.

As for `CC(C)n1c(=O)sc2cc(S(=O)(=O)N3CCN(C(=O)Cc4ccc(Cl)cc4)CC3)ccc21`, the “% Inhibition” value was -16% and the Z score stood at 1.65.

Turning to `CC(=O)N1CCC(N2CCC(Cc3ccccc3)CC2)CC1`, the “% Inhibition” value is reported as 1% and the Z score is given as -0.27.

Turning to `C[C@H](OC(=O)c1ccc(O)cc1)C(N)=O`, the “% Inhibition” value is recorded as -6% and the Z score came to 1.07.

Consider `CCc1cccc(Nc2c(-c3nc(C)no3)cnc3nc(C)ccc23)c1`, for which the “% Inhibition” value is -6% and the Z score was determined as 0.74.

As to `N[C@@H](Cc1ccc(O)cc1)C(=O)NCC1(CO)CCCC1`, the “% Inhibition” value is -10% and the Z score is recorded as 1.32.

Consider `Cc1nnccc1C(=O)N1CCC=C(F)C1`, for which the “% Inhibition” value is recorded as -20% and the Z score is listed as 2.31.

For the compound `CCCN(Cc1ccccc1F)Cc1[nH]c(CC)nc1C`, the “% Inhibition” value is -8% and the Z score is given as 1.58.

Consider `C[C@H]1CCCCCN1C(=O)Nc1ccc(S(=O)(=O)N(C)C)cn1`, for which the “% Inhibition” value is -11% and the Z score came out at 1.51.

For `COC(C)c1cccc(NC(=O)NC2c3ccccc3CCC2n2ccnc2)c1` (stereo unspecified), the “% Inhibition” value is -3% and the Z score turned out to be 0.59.

In the case of `CCNC(=O)N(CCN1CCOCC1)CC(=O)N1N=C(c2cccn2C)C[C@H]1c1ccc(F)cc1`, the “% Inhibition” value was -7% and the Z score worked out at 0.84.

As to `c1ccc(-c2n[nH]c(C3CCN(c4ncnc5nc[nH]c45)CC3)n2)cc1`, the “% Inhibition” value is reported as -3% and the Z score was found to be 0.36.

On to `Cn1c(NC(=O)CNC(=O)N2CCCC2)nc2cccc(Cl)c21`, for which the “% Inhibition” value is -5% and the Z score came out at 0.83.

Consider `c1ccc(-c2nc(-c3cnccn3)no2)c(OC2CNC2)c1`, for which the “% Inhibition” value is 6% and the Z score is -0.67.

`CC(C)CN[C@H]1[C@H](O)[C@@H](n2cc(-c3ccccc3)cn2)[C@@H]2OC[C@H]1O2`: the “% Inhibition” value is 23% and the Z score was -2.66.

Take `O=C(COc1ccccc1)n1nc(NCc2c(F)cccc2Cl)nc1NCc1c(F)cccc1Cl`: the “% Inhibition” value turned out to be 7% and the Z score is -0.84.

Regarding `COc1ccc(F)cc1CN1CCN(Cc2ncc[nH]2)[C@@H]2CS(=O)(=O)C[C@@H]21`, the “% Inhibition” value worked out at 1% and the Z score is -0.24.

As for `Cc1sc(C=Cc2cc(C(F)(F)F)nn2C)nc1C(=O)O`, the “% Inhibition” value is on record as -2% and the Z score was found to be 0.44.

A word on the % Inhibition: it is the relative decrease from the control value, in per cent.
